# Hit rate of the full screen: of about 320,000 compounds, about 7,600 (2.4%) were called active. This list was built around the results that the source calls inconclusive (neither active nor inactive); the mix of calls is not that of the screen. The call rests on the fitted dose curve; in most records, active means well fitted activation curve with a large enough effect; inconclusive means small, poorly fitted or top-dose-only effect; inactive means no such curve, though single readings can be large or run the other way. No potency is given beside an inconclusive call; the fits are too rough.
# Assay: qHTS Assay for NPC1 Promoter Activators; further: nearly all actives have a fitted effect of over 60% in size; on activation: % of control where 0% means no effect
# Details: Huh7 NPC1 promoter luciferase reporter, 24 h; series mostly up to 9.22 µM; activation: at the top concentration
# Summary of the method: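 Luminescence read-out of NPC1 promoter-driven luciferase in stably transfected Huh7 cells; compounds delivered in DMSO and left 24 h at 37C, 5% CO2, qHTS titration format.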
# Potency means the concentration at half of the fitted maximal effect; tags describe the fitted curve by direction and shape.
SMILES,activation,Potency
c1ccc(CN2CCN(CCOCCOc3ccc4c(c3)CCC4)CC2)cc1,inactive: -3.39%,
COC(=O)c1cc(/C=C/c2ccccc2)[nH]n1,,"inconclusive [activator, single point]"
CCOc1ccc(/C=N/NC(=O)c2ccoc2C)cc1OC,,"inconclusive [activator, single point]"
O=c1c2cc(-c3ccccc3)sc2nc2n1N=C(c1cccs1)CS2,,active: 3.16 µM
O=C(NCCC(=O)N1CCc2ccccc21)c1ccco1,,"inconclusive [activator, single point]"
COc1ccc(-c2cc3c(=O)n(CC(=O)NCCCN4CCN(Cc5ccccc5)CC4)ncn3n2)cc1,,"inconclusive [activator, partial curve]"
CCOc1ccc(NC(=S)N(CCN2CCOCC2)Cc2cc3cc4c(cc3[nH]c2=O)OCO4)cc1,inactive: 1.19%,
Cc1ccc(NC(=O)O/N=C/c2ccc(Br)cc2)cc1,inactive: 0.784%,
Cc1ccc(C(=O)Nc2ccc(C(=O)O)cc2NC(=O)c2ccc(C)cc2)cc1,,"inconclusive [activator, partial curve]"
c1ccc(CSc2nnc(NC3=NCCCCC3)s2)cc1,,"inconclusive [activator, single point]"
COc1ccc(-c2nc(CS(=O)CC(=O)NC(C)CCc3ccccc3)c(C)o2)cc1OC (stereo unspecified),inactive: -1.24%,
O=C(CSc1ccccn1)Nc1ccc2c(c1)OCO2,,"inconclusive [activator, single point]"
Cc1cccc(/C(N)=N/OC(=O)c2ccccc2Cl)c1,,active: 0.0891 µM
O=C1C(Cl)=C(N2CCN(Cc3ccccc3)CC2)C(=O)N1Cc1ccccc1,inactive: -4.39%,
O=C(N/N=C/c1c[nH]c2ccccc12)c1ccc(Cl)cc1,,"inconclusive [activator, partial curve]"
O=C(CN1C(=O)C2C3C=CC(C3)C2C1=O)Nc1ccc2c(c1)OCCO2 (stereo unspecified),,"inconclusive [activator, partial curve]"
C=CCOc1cccc(/C=C/c2nc3ccccc3c(=O)[nH]2)c1,,"inconclusive [activator, single point]"
COC(=O)c1cccc(NC(=O)C2COc3ccccc3O2)c1C (stereo unspecified),,"inconclusive [activator, single point]"
CN(C)c1ccc(Nc2cc(Cl)ncn2)cc1,,"inconclusive [activator, partial curve]"
O=C(/C=C/c1ccc(-c2ccc(F)cc2)o1)N1CCCC1,,active: 2.82 µM
CN(C)c1ccc(/C=N\Nc2ccccn2)cc1,,active: 0.891 µM
Cc1ccc(-n2c(C)cc(/C=C3/SC(=O)N(CC(=O)N4CCOCC4)C3=O)c2C)nc1,,"inconclusive [activator, partial curve]"
C/C(=N\Nc1ccc(C(=O)O)cc1)c1ccc(Br)cc1,,"inconclusive [activator, full curve, poor fit]"
O=[N+]([O-])c1cccc2ccc(/C=C/c3ccc(Cl)cc3)nc12,,"inconclusive [activator, single point]"
CC(C)C(=O)NNc1nc2ccccc2s1,,"inconclusive [activator, partial curve]"
CC(=O)Nc1ccc(Nc2ncnc3c2cnn3-c2ccccc2)cc1,,"inconclusive [activator, single point]"

SMILES,activation,Potency
Cc1ccc(Nc2nc(N)c([N+](=O)[O-])c(NCc3ccco3)n2)cc1C,,"inconclusive [activator, single point]"
Cc1ccc(C(=O)Nc2cnc3ccccc3c2)cc1,,"inconclusive [activator, full curve]"
O=C(CSc1nnc(Cc2ccccc2)o1)N1CCCc2ccccc21,inactive: 1.35%,
CS/C(N)=N/N=C/c1ccc2c(c1)OCO2,,"inconclusive [activator, partial curve]"
COc1ccc(-c2cc(-c3cc(F)ccc3O)[nH]n2)cc1OC,,active: 3.16 µM
COc1ccc(NC(=O)c2ccccn2)cc1,,active: 0.501 µM
COc1ccc(-c2cn3nc4c(nc3n2)CCCC4)cc1,,active: 0.447 µM
CCOc1ccccc1OCCn1ncc2ccc(OC)c(OC)c2c1=O,inactive: -7.14%,
CCN(CC)CCNC(=O)c1cc(-c2ccc(Br)s2)nc2ccccc12,,"inconclusive [activator, single point]"
Cc1[nH]n(-c2ccccc2)c(=O)c1N=Nc1ccccc1,,"inconclusive [activator, single point]"
Fc1ccc(CSc2nc3ncccc3[nH]2)cc1,,"inconclusive [activator, partial curve]"
CC(NC(=O)Cn1cccc1)c1ccccc1 (stereo unspecified),inactive: 0.117%,
CC(C)c1ccc(NC(=O)NCc2ccccn2)cc1,,"inconclusive [activator, single point]"
Cc1cccc(C(=O)O/N=C(\N)c2ccccn2)c1,,active: 1.58 µM
COc1cccc2sc(N)nc12,inactive: -3.43%,
CCNS(=O)(=O)c1ccc(Br)c(C(=O)OC(C)C(=O)NCC2CCCCC2)c1 (stereo unspecified),inactive: -3.21%,
Cc1csc(SCc2nnc(-c3ccc(Cl)cc3)o2)n1,,active: 2.82 µM
Cc1nc(-c2cccc(NC(=O)c3ccco3)c2)cs1,inactive: 0.401%,
O=C(NCCC(=O)N1CCCCC1)c1ccc(Br)cc1,,"inconclusive [activator, single point]"
Cc1cc(C)c(C(CC(=O)c2cccs2)C(C#N)C#N)c(C)c1 (stereo unspecified),,"inconclusive [activator, single point]"
COc1ccc2c(c1OC)C(=O)N(c1ccc(C)cc1)C2,,active: 1.12 µM
COc1cc(/C=N/n2c(C)n[nH]c2=S)ccc1OCc1ccccc1,,"inconclusive [activator, partial curve]"
CC(C)(C)C(=O)Nc1nnc(CCc2ccccc2)s1,,active: 3.98 µM
COc1c(C)cccc1C(=O)Nc1ccc(N2CCOCC2)c(Cl)c1,,active: 1.58 µM
COc1ccc(CCN=Cc2ccccc2O)cc1OC,inactive: -6.77%,

# Reference: PubChem BioAssay AID485313 (National Center for Advancing Translational Sciences (NCATS), 2010)
